# PubChem BioAssay (Tox21)
# Several values for one entry are separate records, joined by “and”; a condition that tells them apart may be missing. Equal entries are not always repeated. The inconclusive results got no clear call from the source; some entries with a clear call stand among them for comparison. For some assays here: Potencies of inconclusive entries are doubtful fits and often do not repeat. Activity calls are given as the source filed them. Unless noted, calls follow the shape of the dose curve; as a rule, active = well fitted curve in the direction sought with a large enough effect in the repeat runs; inconclusive = weak or mixed curves; inactive = no such curve, though single readings can be large; an effect the other way counts as inactive or inconclusive.
# Tests used:
# [1] = qHTS RealTime-Glo MT Cell Viability Assay in HEK293 cells - 24 hour (AID 1224886); also: nearly all actives have a fitted effect of over 50% in size; also: potency is read from the fitted curve at half-maximal effect
# Method in brief: (§1)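 Luminescence generated by NanoLuc from substrate produced by living HEK293 cells served as the viability signal. Each value reflects the reading at its stated time point during continuous 40 h compound exposure at 37 C.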
# [2] = qHTS assay to identify small molecule agonists of the farnesoid-X-receptor (FXR) signaling pathway - cell viability counter screen (AID 743218); conditions: FXR-bla HEK293T viability, CellTiter-Glo luminescence, 16 h; viability change, negative = cytotoxic: at 62.6 µM (top of the series) unless noted; also: nearly all actives have a fitted effect of over 45% in size; also: potency is read from the fitted curve at half-maximal effect
# Method in brief: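 Luminescence from CellTiter-Glo, read after 30 min at RT, reports viability of GeneBLAzer FXR-UAS-bla HEK 293T cells treated 16 h with compounds in the wells used for the beta-lactamase reporter.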
# [3] = biological target: Estrogen receptor beta (Homo sapiens) (UniProt Q92731); assay: qHTS assay to identify small molecule antagonists of the estrogen receptor beta (ER-beta) signaling pathway (AID 1259378; active = well fitted inhibition curve with a large enough effect in the signal ratio in the repeat runs, not every such curve was filed as active; inconclusive = weak or mixed curves, or effect the other way; inactive = no such curve, though single readings can be large or run the other way; the % refers to the signal ratio; also: % is scaled to controls: 0 for no effect and ±100 for the full control effect); conditions: ER-beta-UAS-bla HEK293T, beta-lactamase FRET ratio, 16 h; activity, negative = inhibition: at 92.4 µM (top of the series) unless noted
# Method in brief: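 ER-beta-UAS-bla HEK293T (GripTite) cells in 2% charcoal-stripped FBS medium were preincubated 6 hr at 37C, dosed with compound, then stimulated with 1 nM E2 (final) for 16 hr; beta-lactamase reporter read by B/G FRET fluorescence after 2 hr substrate loading.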
# [4] = biological target: Peroxisome proliferator-activated receptor delta (Homo sapiens) (UniProt Q03181); assay: qHTS assay to identify small molecule antagonists of the peroxisome proliferator-activated receptor delta (PPARd) signaling pathway (AID 743215; active = well fitted inhibition curve with a large enough effect in the signal ratio in the repeat runs, not every such curve was filed as active; inconclusive = weak or mixed curves, or effect the other way; inactive = no such curve, though single readings can be large or run the other way; the % refers to the signal ratio;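 also: cells stimulated with agonist L165041 at 300 nM final during compound exposure; % is scaled to controls: 0 for no effect and ±100 for the full control effect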); conditions: HEK293H PPARd-UAS-bla, beta-lactamase FRET ratio, antagonist, 17 h; ratio activity, negative = inhibition: at 62 µM (top of the series) unless noted
# Method in brief: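 HEK293H GeneBLAzer PPARd UAS-bla reporter cells; cpd + L165041 300 nM final, 17 h 37 C; LiveBLAzer B/G FRET substrate 2 h RT; fluorescence intensity read-out. Antagonist mode.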
# [5] = qHTS assay to identify small molecule agonists of the estrogen receptor beta (ER-beta) signaling pathway - cell viability counter screen (AID 1259380); also: % is scaled to controls: 0 for no effect and ±100 for the full control effect; nearly all actives have a fitted effect of over 30% in size
# Method in brief: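 Luminescence read-out (CellTiter-Glo, 30 min, room temp) taken in the same wells as the beta-lactamase reporter assay; ER-beta-UAS-bla HEK293T cells exposed to DMSO-dissolved compounds for 16 hr at 37C in 2% charcoal-stripped FBS medium.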
# [6] = qHTS assay for identifying genotoxic compounds that show differential cytotoxicity against isogenic chicken DT40 cell lines with known DNA damage response pathways - Rad54/Ku70 mutant cell line (AID 743015); conditions: DT40 Rad54/Ku70 mutant viability, CellTiter-Glo, 40 h; activity change, negative = cytotoxicity: at 66.8 µM (top of the series) unless noted; also: nearly all actives have a fitted effect of over 60% in size; also: potency is read from the fitted curve at half-maximal effect
# [7] = qHTS RealTime-Glo MT Cell Viability Assay in HEK293 cells - 32 hour (AID 1224868); also: nearly all actives have a fitted effect of over 50% in size; also: potency is read from the fitted curve at half-maximal effect
# Method in brief: as §1
# [8] = biological target: Progesterone receptor (Homo sapiens) (UniProt P06401); assay: qHTS assay to identify small molecule antagonists of the progesterone receptor (PR) signaling pathway (AID 1346795; active = well fitted inhibition curve with a large enough effect in the signal ratio in the repeat runs, not every such curve was filed as active; inconclusive = weak or mixed curves; the % refers to the signal ratio; also: % is scaled to controls: 0 for no effect and ±100 for the full control effect); conditions: PR-UAS-bla HEK293T, beta-lactamase FRET ratio, 16 h; activity change, negative = inhibition: at 92.4 µM (top of the series) unless noted
# Method in brief: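 After 6 hr plating at 37C in 2% stripped-serum medium, PR-UAS-bla HEK293T cells got compounds, then 1 nM R5020. Sixteen hours later, LiveBLAzer substrate was applied for 2 hr at room temperature and fluorescence was recorded.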
# [9] = biological target: Vitamin D3 receptor (Homo sapiens) (UniProt P11473); assay: qHTS assay to identify small molecule agonists of the vitamin D receptor (VDR) signaling pathway (AID 743222; calls by dose curve; also: potency is read from the fitted curve at half-maximal effect); conditions: HEK293T VDR-UAS-bla, beta-lactamase FRET ratio, 16 h; activation: at 63.5 µM (top of the series) unless noted
# Method in brief: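 Beta-lactamase reporter readout (LiveBLAzer B/G FRET, 2 h RT) in VDR-bla cells after 16 h compound treatment at 37C, 5% CO2; cells pre-incubated 4 h before pin transfer of DMSO solutions.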
# [10] = qHTS assay to identify small molecule antagonists of the vitamin D receptor (VDR) signaling pathway - cell viability counter screen (AID 743225); conditions: VDR-bla HEK293T viability, CellTiter-Glo luminescence, 16 h; viability change, negative = cytotoxic: at 61 µM (top of the series) unless noted; also: nearly all actives have a fitted effect of over 50% in size; also: potency is read from the fitted curve at half-maximal effect
# Method in brief: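 Cytotoxicity toward the VDR-bla HEK 293T line was scored by ATP-based CellTiter-Glo luminescence, read in the wells already used for the beta-lactamase readout after 16 h compound treatment under 3 nM 1-alpha,25-dihydroxyvitamin D3 stimulation.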
# [11] = biological target: Estrogen receptor (Homo sapiens) (UniProt P03372); assay: qHTS assay to identify small molecule agonists of the estrogen receptor alpha (ER-alpha) signaling pathway using the BG1 cell line (AID 743079); conditions: BG1Luc4E2 cells, ERE-luciferase agonist, 22 h; activation: at 70.3 µM (top of the series) unless noted; also: % is scaled to controls: 0 for no effect and ±100 for the full control effect; nearly all actives have a fitted effect of over 20% in size
# [12] = A CellTox Green Cytotoxicity Assay to monitor cytotoxicity in HepG2 cells - 40 hour (AID 1224879); also: nearly all actives have a fitted effect of over 40% in size; also: potency is read from the fitted curve at half-maximal effect
# Method in brief: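 HepG2, 600 cells/well premixed w/ CellTox Green; 5 h settle, 37 C/5% CO2; pintool cpd add (DMSO); 37 C, 40 h; fluorescence read at 0, 8, 16, 24, 32, 40 h.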
# [13] = qHTS RealTime-Glo MT Cell Viability Assay in HEK293 cells - 16 hour (AID 1224872); also: nearly all actives have a fitted effect of over 50% in size; also: potency is read from the fitted curve at half-maximal effect
# Method in brief: as §1
# [14] = biological target: Thyrotropin receptor (Homo sapiens) (UniProt P16473); assay: qHTS assay to identify small molecule antagonists of the thyroid stimulating hormone receptor (TSHR) signaling pathway (AID 1259385; calls by dose curve; also: % is scaled to controls: 0 for no effect and ±100 for the full control effect; nearly all actives have a fitted effect of over 20% in size); conditions: TSHR-HEK293 cAMP HTRF, TSH-stimulated antagonist mode; activity change, negative = inhibition: at 92.4 µM (top of the series) unless noted
# Method in brief: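 TSHR-HEK293 cells were plated and held 18 h at 37C/5% CO2, then given compound plus Ro20-1724 and stimulated with TSH at 1.5 ng/mL final. After 30 min at room temperature, cAMP was detected with cAMP-d2/anti-cAMP-cryptate (1 h) by fluorescence.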
# [15] = qHTS assay for small molecule activators of the heat shock response signaling pathway (AID 743210; active = well fitted activation curve with a large enough effect in the signal ratio in the repeat runs, with a control signal flat, not every such curve was filed as active; inconclusive = weak or mixed curves; the % refers to the signal ratio; also: % is scaled to controls: 0 for no effect and ±100 for the full control effect); conditions: HeLa HSE-bla reporter, beta-lactamase ratio, 5 h; activation: at 62.6 µM (top of the series) unless noted
# Method in brief: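 Heat shock element–beta-lactamase HeLa reporter cells; qHTS with compounds for 5 h at 37 C; detection by FRET substrate fluorescence after 2.5 h at RT.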
# [16] = biological target: Estrogen receptor beta (Homo sapiens) (UniProt Q92731); assay: qHTS assay to identify small molecule agonists of the estrogen receptor beta (ER-beta) signaling pathway (AID 1259377; active = well fitted activation curve with a large enough effect in the signal ratio in the repeat runs, not every such curve was filed as active; inconclusive = weak or mixed curves, or effect the other way; the % refers to the signal ratio; also: % is scaled to controls: 0 for no effect and ±100 for the full control effect); conditions: ER-beta-UAS-bla HEK293T, beta-lactamase FRET ratio, 16 h; activation: at 92.4 µM (top of the series) unless noted
# Method in brief: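 Measured by fluorescence intensity from a B/G FRET beta-lactamase substrate (2 h, room temperature) in ER-beta-UAS-bla HEK293T cells treated with DMSO-dissolved compounds for 16 hr at 37C and 5% CO2.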
# [17] = qHTS assay to identify small molecule antagonists of the sonic hedgehog signaling (Shh) pathway (AID 1259369; calls by dose curve; also: nearly all actives have a fitted effect of over 45% in size; also: potency is read from the fitted curve at half-maximal effect)
# Method in brief: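 Luminescence readout: firefly Luc under Gli1 response element in 3T3Gli1-Luc cells (NIH/3T3 clone). Antagonist mode, stimulation by conditioned medium; compound exposure 24hr at 37 C, 5% CO2.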
# [18] = qHTS assay for identifying genotoxic compounds that show differential cytotoxicity against isogenic chicken DT40 cell lines with known DNA damage response pathways - Rev3 mutant cell line (AID 743014); conditions: chicken DT40 Rev3-/- viability, CellTiter-Glo, 40 h; activity, negative = cytotoxicity: at 68.4 µM (top of the series) unless noted; also: potency is read from the fitted curve at half-maximal effect; nearly all actives have a fitted effect of over 55% in size
# Tags tell the direction and shape of the fitted curve or compound fluorescence and quenching.
# Chain of UniProt Q03181 (Q03181 whole entry, looked up): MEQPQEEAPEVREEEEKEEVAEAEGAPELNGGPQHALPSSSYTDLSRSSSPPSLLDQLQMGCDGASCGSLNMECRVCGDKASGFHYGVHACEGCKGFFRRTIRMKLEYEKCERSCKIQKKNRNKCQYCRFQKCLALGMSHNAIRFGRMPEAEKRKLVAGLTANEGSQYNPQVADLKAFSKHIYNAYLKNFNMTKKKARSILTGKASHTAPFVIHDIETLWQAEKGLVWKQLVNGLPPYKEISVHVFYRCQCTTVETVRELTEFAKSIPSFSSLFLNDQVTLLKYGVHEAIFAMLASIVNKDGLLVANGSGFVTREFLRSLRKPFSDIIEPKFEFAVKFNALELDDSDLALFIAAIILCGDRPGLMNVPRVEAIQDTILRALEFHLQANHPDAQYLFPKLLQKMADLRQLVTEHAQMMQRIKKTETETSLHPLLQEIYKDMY
# Chain of UniProt Q92731 (Q92731 whole entry, looked up): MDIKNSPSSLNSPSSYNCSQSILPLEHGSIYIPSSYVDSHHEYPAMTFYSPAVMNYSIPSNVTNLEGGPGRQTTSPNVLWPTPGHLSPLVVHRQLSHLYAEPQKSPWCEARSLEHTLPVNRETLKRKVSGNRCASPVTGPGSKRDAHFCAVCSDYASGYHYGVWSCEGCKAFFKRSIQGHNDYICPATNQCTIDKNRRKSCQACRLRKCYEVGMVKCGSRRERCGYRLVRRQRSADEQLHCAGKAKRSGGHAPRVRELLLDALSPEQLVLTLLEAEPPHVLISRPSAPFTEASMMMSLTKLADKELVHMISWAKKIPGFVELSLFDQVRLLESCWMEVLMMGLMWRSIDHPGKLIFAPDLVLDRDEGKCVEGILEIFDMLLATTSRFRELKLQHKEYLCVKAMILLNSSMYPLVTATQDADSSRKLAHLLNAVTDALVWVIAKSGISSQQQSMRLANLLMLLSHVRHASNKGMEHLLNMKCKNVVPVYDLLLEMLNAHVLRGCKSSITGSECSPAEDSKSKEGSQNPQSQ
# Chain of UniProt P03372 (P03372 whole entry, looked up): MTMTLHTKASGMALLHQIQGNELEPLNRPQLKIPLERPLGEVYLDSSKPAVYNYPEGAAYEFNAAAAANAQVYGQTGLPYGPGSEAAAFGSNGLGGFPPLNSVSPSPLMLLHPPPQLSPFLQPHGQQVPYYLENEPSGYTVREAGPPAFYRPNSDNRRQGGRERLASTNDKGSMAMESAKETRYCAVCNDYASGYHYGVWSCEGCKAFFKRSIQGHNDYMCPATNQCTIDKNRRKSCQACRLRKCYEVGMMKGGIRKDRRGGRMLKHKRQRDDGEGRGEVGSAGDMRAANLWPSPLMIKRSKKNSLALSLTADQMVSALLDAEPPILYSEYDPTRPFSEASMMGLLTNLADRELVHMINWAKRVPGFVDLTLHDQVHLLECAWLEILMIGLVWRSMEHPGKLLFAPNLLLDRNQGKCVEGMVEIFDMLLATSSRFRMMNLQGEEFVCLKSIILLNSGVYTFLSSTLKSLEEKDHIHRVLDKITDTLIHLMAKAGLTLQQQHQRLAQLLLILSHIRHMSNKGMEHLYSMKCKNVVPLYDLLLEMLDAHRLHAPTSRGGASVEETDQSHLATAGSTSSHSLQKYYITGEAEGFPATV
# Chain of UniProt P11473 (P11473 whole entry, looked up): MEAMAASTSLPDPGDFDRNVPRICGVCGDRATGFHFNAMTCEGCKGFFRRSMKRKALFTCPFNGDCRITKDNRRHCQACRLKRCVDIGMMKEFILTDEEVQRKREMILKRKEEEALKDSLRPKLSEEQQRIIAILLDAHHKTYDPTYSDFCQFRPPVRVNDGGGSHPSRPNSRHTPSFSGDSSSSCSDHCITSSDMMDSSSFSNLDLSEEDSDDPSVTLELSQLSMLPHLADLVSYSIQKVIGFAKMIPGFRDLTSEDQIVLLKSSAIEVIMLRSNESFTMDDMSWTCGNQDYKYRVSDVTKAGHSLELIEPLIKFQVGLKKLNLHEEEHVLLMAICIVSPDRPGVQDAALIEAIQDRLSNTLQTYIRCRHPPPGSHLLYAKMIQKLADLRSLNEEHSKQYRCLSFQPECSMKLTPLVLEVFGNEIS
# Chain of UniProt P06401 (P06401 whole entry, looked up): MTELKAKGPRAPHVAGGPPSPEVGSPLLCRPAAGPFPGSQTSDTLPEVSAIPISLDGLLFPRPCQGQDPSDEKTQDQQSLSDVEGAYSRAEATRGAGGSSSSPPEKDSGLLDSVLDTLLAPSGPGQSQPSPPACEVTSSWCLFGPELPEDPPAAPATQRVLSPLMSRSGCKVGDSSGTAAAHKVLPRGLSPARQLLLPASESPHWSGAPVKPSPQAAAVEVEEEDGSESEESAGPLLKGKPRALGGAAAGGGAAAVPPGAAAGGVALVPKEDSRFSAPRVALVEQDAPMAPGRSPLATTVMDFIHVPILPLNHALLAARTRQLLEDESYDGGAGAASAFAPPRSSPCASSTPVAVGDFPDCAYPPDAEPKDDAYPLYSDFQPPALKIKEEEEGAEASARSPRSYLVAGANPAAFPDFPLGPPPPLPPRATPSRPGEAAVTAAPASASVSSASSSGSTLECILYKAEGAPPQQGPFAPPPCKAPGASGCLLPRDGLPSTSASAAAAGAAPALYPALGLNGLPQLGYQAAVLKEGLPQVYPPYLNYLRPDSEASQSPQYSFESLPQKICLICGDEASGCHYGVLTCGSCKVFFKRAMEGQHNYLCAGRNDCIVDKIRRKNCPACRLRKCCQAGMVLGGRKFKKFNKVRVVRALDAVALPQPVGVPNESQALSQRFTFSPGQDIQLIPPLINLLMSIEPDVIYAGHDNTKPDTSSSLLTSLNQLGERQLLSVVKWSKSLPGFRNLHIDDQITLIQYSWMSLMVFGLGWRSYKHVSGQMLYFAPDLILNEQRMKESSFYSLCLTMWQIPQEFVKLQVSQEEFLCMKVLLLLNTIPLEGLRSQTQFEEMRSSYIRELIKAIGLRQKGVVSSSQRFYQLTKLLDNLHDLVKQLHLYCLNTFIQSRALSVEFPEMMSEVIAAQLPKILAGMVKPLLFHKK
# Chain of UniProt P16473 (P16473 whole entry, looked up): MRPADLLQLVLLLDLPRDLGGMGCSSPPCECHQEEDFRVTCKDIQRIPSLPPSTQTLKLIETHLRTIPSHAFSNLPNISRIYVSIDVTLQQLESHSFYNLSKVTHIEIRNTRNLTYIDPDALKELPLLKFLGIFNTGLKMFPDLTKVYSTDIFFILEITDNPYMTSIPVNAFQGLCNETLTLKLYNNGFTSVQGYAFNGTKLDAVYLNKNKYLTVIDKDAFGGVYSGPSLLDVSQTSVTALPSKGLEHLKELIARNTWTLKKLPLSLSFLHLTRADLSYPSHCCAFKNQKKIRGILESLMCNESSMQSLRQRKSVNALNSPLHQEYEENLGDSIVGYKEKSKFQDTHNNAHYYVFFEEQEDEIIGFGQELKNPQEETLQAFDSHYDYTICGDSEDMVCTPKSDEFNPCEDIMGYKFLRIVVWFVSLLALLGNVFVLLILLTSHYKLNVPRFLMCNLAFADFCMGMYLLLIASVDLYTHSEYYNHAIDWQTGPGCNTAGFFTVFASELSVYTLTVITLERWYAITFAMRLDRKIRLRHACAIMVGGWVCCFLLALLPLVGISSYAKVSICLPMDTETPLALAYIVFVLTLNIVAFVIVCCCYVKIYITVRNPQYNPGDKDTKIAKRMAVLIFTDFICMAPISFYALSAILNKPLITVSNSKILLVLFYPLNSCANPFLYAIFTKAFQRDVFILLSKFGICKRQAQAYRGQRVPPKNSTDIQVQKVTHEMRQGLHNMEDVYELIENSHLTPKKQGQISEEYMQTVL
compound,measurement,setting,value
Nc1c2c(nc3c1CCC3)CCCC2,Potency,[1],inactive
O=C(O)/C=C\C(=O)O,Potency,[2],"inconclusive: 1.8 µM [rising, full curve, poor fit]"
same,Potency,[3],inactive
Nc1ccc(F)cc1F,"ratio activity, negative = inhibition",[4],inconclusive: -2.13% [at 80.4 µM]
same,Potency,[5],inactive
O=S(=O)(O)c1ccc2c(N=Nc3ccc(S(=O)(=O)O)c4ccccc34)c(O)c(S(=O)(=O)O)cc2c1,Potency,[6],"inconclusive: 21.1 µM [cytotoxic, partial curve, poor fit]"
same,"activity change, negative = cytotoxic",[7],inactive: 7.73% [at 6.97 µM]
same,"activity change, negative = inhibition",[8],inactive: -1.68% [at 8.39 µM]
CCCCC(CC)COC(=O)c1ccccc1 (stereo not given),Potency,[9],"inconclusive: 19.5 µM [fluorescent, single point]"
CC(C)CCOCCC(C)C,Potency,[3],inactive
CC(=O)Nc1ccc(S(=O)(=O)Nc2cc(C)on2)cc1,"ratio activity, negative = inhibition",[4],inconclusive: -0.289%
same,Potency,[10],inactive
CNC(=O)Oc1ccc2c(c1)[C@]1(C)CCN(C)[C@@H]1N2C,Potency,[6],"inconclusive: 68.6 µM [cytotoxic, single point]"
same,Potency,[11],inactive
same,Potency,[10],inactive
same,Potency,[7],inactive
CCCCCC=O,Potency,[11],inactive
same,Potency,[9],"inactive and inconclusive: 12.3 µM [fluorescent, partial curve, poor fit]"
same,Potency,[12],"inactive and inconclusive: 30.9 nM [activator, full curve, poor fit]"
CCN(CC)CC(=O)Oc1ccc(NC(C)=O)cc1,Potency,[7],"inconclusive: 10.7 µM [cytotoxic, single point]"
same,Potency,[13],"inconclusive: 10.7 µM [cytotoxic, single point]"
same,Potency,[1],"inconclusive: 10.7 µM [cytotoxic, single point]"
same,Potency,[14],inactive
O=C[C@H](O)[C@H](O)[C@H](O)CO,"activity, negative = inhibition",[3],inconclusive: -25.2%
CCCC(=O)O[C@]1(C(=O)COC(=O)CC)CC[C@H]2[C@@H]3CCC4=CC(=O)CC[C@]4(C)[C@H]3[C@@H](O)C[C@@]21C,activation,[11],inconclusive: 15.3% [phenotype inactive]
same,"viability change, negative = cytotoxic",[2],inconclusive: 11.9% [at 29.1 µM]
CC(=O)CCc1ccc(O)cc1,Potency,[15],inactive
same,activation,[16],inconclusive: 5.28%
C=CC(=O)OCCN(CC)CC,Potency,[13],inactive
same,Potency,[17],inactive
same,Potency,[3],inactive
same,Potency,[14],inactive
CC(C)COC(=O)CCCCC(=O)OCC(C)C,Potency,[18],"inconclusive: 77 µM [cytotoxic, partial curve, poor fit]"
C/C(=N/NC(=O)c1ccncc1)C(=O)O,Potency,[15],inactive
same,Potency,[10],"inconclusive: 33.8 nM [rising, full curve, poor fit]"
same,Potency,[8],inactive
COCCOCCOC,Potency,[6],inactive
same,Potency,[11],inactive
same,Potency,[10],"inactive and inconclusive: 490 nM [cytotoxic, single point]"
same,Potency,[1],inactive
same,Potency,[17],"inconclusive: 38.6 µM [inhibitor, partial curve, poor fit]"
same,activation,[16],inconclusive: 13.6%
CC(=O)C1CCCCC1=O (stereo not given),Potency,[4],inactive
same,Potency,[9],inactive
same,"viability change, negative = cytotoxic",[10],inconclusive: -13.1% [cytotoxic]
CCC(=O)OCCC(C)CCC=C(C)C (stereo not given),Potency,[18],"inconclusive: 30.6 µM [cytotoxic, partial curve, poor fit]"
same,Potency,[6],"inconclusive: 48.6 µM [cytotoxic, partial curve]"
same,activation,[16],inconclusive: 13.6%
same,Potency,[3],inactive
same,Potency,[8],inactive
